Values joined by “and” are separate entries in the source; they are usually repeats but may differ in a detail not shown here. Equal entries are not always repeated. The campaign covered roughly 94,000 compounds. About 6,200 (6.6%) were called active. The shares of active, inactive and inconclusive entries below differ from those in the screen. Calls follow the shape of the dose curve; as a rule, active = well fitted inhibition curve with a large enough effect; inconclusive = small, poorly fitted or top-dose-only effect; inactive = flat fitted curve, though single readings scatter. Potencies beside an inconclusive call are fits to weak or partial responses and may not hold up.
Experiment: Cytotoxic Profiling in HEK 293 Cell Line of Diverse Libraries Using Quantitative High-Throughput Screening; also: nearly all actives have a fitted effect of over 60% in size
Conditions: HEK 293 viability, ATP luminescence (CellTiter-Glo), 48-72 h; activity change, negative = cytotoxicity: at 115 µM (top of the series) unless noted; series mostly up to 115 µM
Outline: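 ATP-coupled CellTiter-Glo luminescence served as viability read-out, recorded 10 min after reagent addition at room temperature. HEK 293 cells, 250 cells/well, had been incubated with pintool-transferred compound for 48 or 72 hr at 37 degree Celsius.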
% is scaled to controls: 0 for no effect and ±100 for the full control effect; potency is read from the fitted curve at half-maximal effect; tags tell the direction and shape of the fitted curve.

Row | SMILES | Potency | activity change, negative = cytotoxicity
1 | CC1(C(=O)NCc2ccccc2)COCc2cnc(Nc3ccccc3)nc21 (stereo not given) | inconclusive: 70.8 µM [inhibitor, partial curve, poor fit] | –
2 | Cc1noc(C)c1C(=O)N1C[C@@H](COCC2CC2)[C@H](c2ccccn2)C1 | – | inactive: 2.78%
3 | CC(=O)c1ccc(NC(=O)Cn2c(-c3cnccn3)nc(C)c(C)c2=O)cc1 | – | inactive: 2.32%
4 | NCCC(=O)NC1CCCc2c1cnn2-c1ccc(F)cc1F (stereo not given) | – | inactive: -1.28%
5 | COc1cccc(CC(=O)N2CCC3(CC2)N=C(c2ccc(C)cc2)NO3)c1 | inconclusive: 17.8 µM [inhibitor, full curve, poor fit] | –
6 | CC1=C[C@@H](CNC(=O)N2CCOCC2)[C@H](C(C)C)C[C@H]1Cc1nc2ccccc2[nH]1 | inconclusive: 89.1 µM [inhibitor, partial curve, poor fit] | –
7 | Cc1noc2c(-c3cccc(O)c3)cc(-c3ccccc3)nc12 | active: 50.1 µM | –
8 | O=C1CCn2nnc(CNc3ccc(OC(F)(F)F)cc3)c2CN1Cc1ccccc1 | inconclusive: 100 µM [inhibitor, partial curve] | –
9 | Cc1ccc(-c2cccc(CN3CCCC3C(=O)N3CCOCC3)c2)cc1Cl (stereo not given) | inconclusive: 50.1 µM [inhibitor, partial curve, poor fit] | –
10 | C[S+](=O)([O-])c1ccc(-c2cc(C(=O)NCc3ccc(F)cc3)nn3cccc23)cc1 | inconclusive: 20 µM [inhibitor, full curve, poor fit] | –
11 | COc1ccccc1-n1c(=O)c(C(=O)N2CCC(Cc3ccccc3)CC2)nc2cccnc21 | – | inactive: -9.93%
12 | CC1(C)CC2CC(C)(CN2C(=O)CC(c2ccccc2Cl)c2c[nH]c3ccccc23)C1 (stereo not given) | active: 25.1 µM | –
13 | O=C(Nc1cccc(Cl)c1)C1CCCN1c1nc2ncccc2o1 (stereo not given) | – | inactive: -18.1%
14 | Cn1ncc2c(C(=O)NCc3ccc(F)cc3)cc(-c3ccc(F)cc3)nc21 | inconclusive: 35.5 µM [inhibitor, full curve, poor fit] | –
15 | Cc1ccc(C(=O)N2CC(c3noc(COc4ccccc4C)n3)C2)cn1 | – | inactive: -18.5%
16 | CC(C)(Oc1nn(CCN2CCOCC2)c2ccccc12)C(=O)NCc1ccccc1 | inconclusive: 112 µM [inhibitor, partial curve, poor fit] | –
17 | COCCN1CCC2(C1)CN(C)c1ccc(C(=O)Nc3ccc(OC)cc3)cc12 (stereo not given) | inconclusive: 100 µM [inhibitor, partial curve, poor fit] | –
18 | Cc1ccc(C)c(OCC(=O)c2ccc3c(c2)N(CCCC(=O)NC2CCCCC2)C(=O)CO3)c1 | inconclusive: 44.7 µM [inhibitor, partial curve, poor fit] | –
19 | O=C(NC1CCN(Cc2cccc(-c3cccs3)c2)CC1)c1ccncc1 | inconclusive: 22.4 µM [inhibitor, partial curve, poor fit] and inconclusive: 44.7 µM [inhibitor, partial curve, poor fit] | –
20 | CCOc1ccc(C2Cn3nnc(-c4nc(CC)no4)c3CO2)cc1 (stereo not given) | inconclusive: 89.1 µM [inhibitor, single point] | –

Row | SMILES | Potency | activity change, negative = cytotoxicity
21 | Oc1ccc(CN2CC(CNc3ccccc3)C3(C2)CN(c2ccccc2)C3)cc1 (stereo not given) | active: 39.8 µM | –
22 | CN(C)C(=O)N1CCC2(CC1)CN(C(=O)CCc1c[nH]c3ccccc13)Cc1ccccc1O2 | inconclusive: 79.4 µM [inhibitor, partial curve, poor fit] | –
23 | COc1ccc(CN2CC3(C2)C(=O)N(Cc2cccc(Cl)c2)C(=O)[C@@H]2C[C@@H](O)CN23)c2ccccc12 | inconclusive: 56.2 µM [inhibitor, partial curve, poor fit] | –
24 | CC(C)C[C@@H]1N[C@H](C(=O)NC(C)C)Cc2cn(Cc3ccncc3)c3cccc1c23 | inconclusive: 22.4 µM [inhibitor, full curve, poor fit] | –
25 | Cc1ccccc1C(=O)N1CC(N2C(=O)c3c(c(C)nn3-c3ccccc3)C2C)C1 (stereo not given) | inconclusive: 89.1 µM [inhibitor, partial curve, poor fit] and inconclusive: 50.1 µM [inhibitor, partial curve, poor fit] | –
26 | O=C(c1ccc(F)cc1)N1CCC(c2nn(-c3ccc(Cl)cc3)c(=O)[nH]2)CC1 | inconclusive: 89.1 µM [inhibitor, single point] | –
27 | N#Cc1cccc(CN2CCc3c(n(Cc4cccnc4)n(CCc4ccccc4)c3=O)C2)c1 | inconclusive: 89.1 µM [inhibitor, single point] | –
28 | COc1ccc(Nc2cc3c(cn2)CN(C)CCN3)cc1OC | – | inactive: -29.8% [at 172 µM]
29 | COc1ccccc1-c1cccc(CN2CCCC(C(=O)NCc3ccc(F)cc3)C2)c1 (stereo not given) | active: 31.6 µM | –
30 | COc1ccc(CN2C(=O)CO[C@H](c3ccc(NC(=O)c4ccc(OC)cc4)cc3)[C@H]2CO)cc1 | inconclusive: 89.1 µM [inhibitor, single point] | –
31 | COCCn1c(C)cc(C(=O)N2CCC3(CC2)CC(O)CCO3)c1C (stereo not given) | – | inactive: 3.22%
32 | COc1cccc(CN2C[C@@H]3C(=O)N(CCN4CCc5ccccc5C4)C(=O)[C@@H]3C2)c1 | inconclusive: 79.4 µM [inhibitor, partial curve, poor fit] | –
33 | COc1ccc(S(=O)(=O)N2CCOC[C@H](Oc3ccc(C(F)(F)F)cc3)C2)cc1 | inconclusive: 44.7 µM [inhibitor, full curve, poor fit] | –
34 | Cn1ccnc1-c1cn(CC2(c3ccccc3F)CCCC2)nn1 | inconclusive: 31.6 µM [inhibitor, partial curve, poor fit] | –
35 | CCc1nncn1C1CCN(S(=O)(=O)c2ccc(Cl)s2)CC1 | inconclusive: 50.1 µM [inhibitor, partial curve, poor fit] | –
36 | O=C(NCC12CCC=C1N(CC1CC1)C(=O)CC2)c1nccc2ccccc12 (stereo not given) | inconclusive: 56.2 µM [inhibitor, partial curve, poor fit] | –
37 | C=CCC(=O)N1CCCC(N2CCN(c3cccc(C(F)(F)F)c3)CC2)C1 (stereo not given) | inconclusive: 50.1 µM [inhibitor, partial curve, poor fit] | –
38 | COCCNC(=O)CC1=CSC2=NC(C)=C(C(=O)Nc3ccccc3)C(c3cccc(C)c3)N12 (stereo not given) | inconclusive: 50.1 µM [inhibitor, partial curve, poor fit] | –
39 | CC(C)(C)C(=O)N1CCN(Cc2ccccc2-c2cccnc2)CC1 | active: 100 µM | –
40 | CN1c2cc(C(=O)Nc3ccc(Cl)c(Cl)c3)ccc2C(=O)N2CCCCC21 (stereo not given) | inconclusive: 50.1 µM [inhibitor, partial curve, poor fit] | –

Row | SMILES | Potency | activity change, negative = cytotoxicity
41 | Cc1ccccc1C(=O)NCCn1cccc1-c1nc(-c2ccc3c(c2)OCO3)no1 | inconclusive: 50.1 µM [inhibitor, partial curve, poor fit] | –
42 | COCCOc1ccc2c(n1)CCN(C(=O)c1cccc(OC)c1OC)C2 | – | inactive: 7.59%
43 | C[C@@]12CC[C@H]3O[C@H](COc4ccccc4)OC[C@@]3(C)C1CC[C@@H](O)C2CC(=O)N1CCCC1 (stereo not given in full) | inconclusive: 56.2 µM [inhibitor, partial curve, poor fit] | –
44 | CN1CC2(CCN(C(=O)CCCc3ccccc3)CC2)CC1C(=O)N1CCOCC1 (stereo not given) | inconclusive: 89.1 µM [inhibitor, single point] | –
45 | Cc1cn2nc(C(=O)NCc3ccc(C(F)(F)F)cc3)cc2c(N2CCCC2)n1 | active: 44.7 µM | –
46 | O=[S+]([O-])(CCC(F)(F)F)N1CCCN(c2ccc3nnc(-c4ccccc4)n3n2)CC1 | inconclusive: 79.4 µM [inhibitor, partial curve, poor fit] | –
47 | COc1cccc(-c2c(C(=O)N3CCOCC3)nc3sccn23)c1 | – | inactive: -27.3% [at 172 µM]
48 | O=C1OCC2(CCN(Cc3ccc4c(c3)CCO4)C2)N1Cc1ccccc1 (stereo not given) | inconclusive: 89.1 µM [inhibitor, partial curve, poor fit] | –
49 | O=C1CO[C@H]2CCN(Cc3ccncc3Cl)CC[C@@H]2N1c1ccccc1 | active: 44.7 µM | –
50 | O=S(=O)(NC[C@H]1O[C@@H](CO)[C@@H](O)[C@H]1N1CCN(c2ccccn2)CC1)c1ccc(Cl)cc1 | inconclusive: 100 µM [inhibitor, single point] | –
51 | COc1ccccc1-c1cccc(CN2CCCC(C(=O)NC(C)C)C2)c1 (stereo not given) | inconclusive: 56.2 µM [inhibitor, partial curve, poor fit] | –
52 | O=C(NCc1cccc(F)c1)C1CN(C2CCCC2)C(=O)N1 (stereo not given) | – | inactive: 0.851% [at 172 µM]
53 | Oc1ccccc1CN1CCNc2cc(Nc3ccccc3)ncc2C1 | active: 28.2 µM | –
54 | CCC1=C(C(=O)OC)C(c2ccccc2OC)N2C(CC(=O)N3CC(C)OC(C)C3)=CSC2=N1 (stereo not given) | inconclusive: 89.1 µM [inhibitor, single point] | –
55 | COCC(=O)Nc1ccc(-c2noc([C@@H]3CCCN3Cc3ccc(NC(C)=O)cc3)n2)cn1 | – | inactive: -1.77%
56 | OCC1(CN2CCCC2)CCN(Cc2ccc(Cl)cc2)CC1 | inconclusive: 44.7 µM [inhibitor, partial curve, poor fit] | –
57 | CN(C)c1ccc(C(=O)N[C@H]2CO[C@H]3[C@@H]2OC[C@@H]3n2cc(-c3ccccn3)nn2)cc1 | inconclusive: 100 µM [inhibitor, partial curve, poor fit] | –
58 | COc1cccc(S(=O)(=O)N2CCC3(CC2)CC(OC)CCO3)c1 (stereo not given) | – | inactive: 15.8%
59 | Cc1ccc(-n2c(C3CCN(C(=O)c4ccc5cc[nH]c5c4)CC3)n[nH]c2=O)cc1 | – | inactive: 9.61%
60 | O=C(NCCc1cnc[nH]1)c1cc(-c2ccccc2F)cc2c1OCCN2Cc1cccnc1 | inconclusive: 50.1 µM [inhibitor, partial curve, poor fit] | –
